Screen size: about 150,000 compounds; about 540 (0.36%) showed an effect of 50% or more. The list shows a part of the results.

For this assay, the system named is Plasmodium falciparum. Nature of the assay: Primary screen in NF54 nanoGlo assay, in single point, at 2uM, 72h; a lower Z score goes with more inhibition. It is filed as functional, Erythrocyte. As to conditions: timepoint 72 hour.
On to `C[C@H](NS(=O)(=O)c1ccc2c(c1)OCCCO2)C(=O)NCc1ccc2c(c1)OCO2`, for which the “% Inhibition” value is given as -7% and the Z score turned out to be 0.92.

In the case of `CCCNC(=O)[C@@H](NC(=O)c1ccc(OC)cc1)C1CCN(C(=O)COC)CC1`, the “% Inhibition” value is recorded as 6% and the Z score is recorded as -0.88.

As to `CO[C@@H]1COC[C@@H]1S(=O)(=O)NC(C)CC(=O)c1ccccc1` (some centres undefined), the “% Inhibition” value amounted to 1% and the Z score was -0.11.

For the compound `O=C(NCCCCN1CCCC1)c1cccc(-c2ncccn2)c1`, the “% Inhibition” value is -6% and the Z score was 0.94.

As for `O=C(NC1CC1)[C@@H]1CCCN1S(=O)(=O)c1ccc2c(c1)CCC2`, the “% Inhibition” value is reported as -13% and the Z score is given as 1.99.

For `Cc1ccc(CN(Cc2ccc(F)cc2)Cc2nc(C(=O)N3CCN(c4cccc(Cl)c4)CC3)cs2)cc1`, the “% Inhibition” value is reported as -11% and the Z score was determined as 1.11.

Turning to `CC[C@H](NC(=O)N1CCN(c2nncn2C)CC1)c1csc(C)c1`, the “% Inhibition” value is -17% and the Z score is 2.71.

In the case of `Cc1noc(C)c1CN1C(=O)[C@@H]2CC[C@H]1CN(c1ncccc1C(N)=O)C2`, the “% Inhibition” value is -14% and the Z score was 1.67.

`Cc1csc(C2CCCN(S(=O)(=O)N3CCC4CCCCC4C3)C2)n1` (centres undefined): the “% Inhibition” value is on record as -4% and the Z score stood at 0.6.

Regarding `C[C@@H](C(=O)N(C)C)S(=O)(=O)N(c1cccc(F)c1)C1CCCC1`, the “% Inhibition” value is reported as -12% and the Z score was 1.18.

Turning to `O=C(NC1CCC1)c1coc(COc2cccc(F)c2)n1`, the “% Inhibition” value was -1% and the Z score is reported as 0.13.

As for `N#Cc1csc(CNc2nnc([C@@H]3CCCO3)o2)c1`, the “% Inhibition” value is reported as -7% and the Z score was determined as 0.93.

`O=C1C[C@H](CNC(=O)N2CCC(c3c(Cl)cccc3Cl)CC2)CN1`: the “% Inhibition” value is -20% and the Z score was determined as 2.04.

With `C=CCN(C(=O)c1coc(-c2cccnc2)n1)c1nc2c(s1)CCCC2`, the “% Inhibition” value is on record as 0% and the Z score is listed as -0.01.

For `CCc1nc(-c2cc(NC(=O)CNC(=O)c3ccc(C)cc3)c(C)s2)no1`, the “% Inhibition” value was -7% and the Z score came out at 0.71.

As for `CCC[C@@]1(C2CC2)NC(=O)N(Cc2ncnn2C)C1=O`, the “% Inhibition” value is -4% and the Z score worked out at 0.69.

As for `CN(C)CCN(C)c1ccc(Br)cc1NCc1ccnn1C`, the “% Inhibition” value stood at 8% and the Z score is on record as -1.04.

`CCc1cc(C(=O)N(C)C[C@]2(c3ccccc3)CC2(C)C)cc(=O)[nH]1`: the “% Inhibition” value is reported as 0% and the Z score is recorded as 0.05.

For `Cc1cc(CC(=O)N[C@H]2CC(=O)N(c3ccccc3)C2)n[nH]1`, the “% Inhibition” value is on record as -12% and the Z score is 1.26.

`CC(c1cnn(C)c1)c1nc(C2CCOC3(CCCC3)C2)no1` (centres undefined): the “% Inhibition” value is given as -2% and the Z score is 0.3.

As to `Cc1cccc(N2CCN(C(=O)CC3CCN(C(=O)c4[nH]c(C)cc4C)CC3)C[C@@H]2C)c1`, the “% Inhibition” value was -3% and the Z score amounted to 0.24.

`CN1C(=O)c2cccn2C[C@@H]1CNS(=O)(=O)c1ccc(F)cc1`: the “% Inhibition” value is recorded as -14% and the Z score worked out at 2.63.

Take `N#Cc1cc2n(n1)CCN(CCCCOc1ccccc1)C2`: the “% Inhibition” value is given as 4% and the Z score is -0.76.

For `CCCc1cc(C(=O)N(C)[C@@H](C)c2cc(-c3ccccc3)[nH]n2)n(C)n1`, the “% Inhibition” value was -7% and the Z score is given as 0.9.

Consider `Cc1occc1C(=O)N(C)[C@@H](C)C1CC1`, for which the “% Inhibition” value is reported as -14% and the Z score is 1.52.

As for `O=C(O)CN(C1CCC1)S(=O)(=O)c1ccc2c(c1)CCC2`, the “% Inhibition” value was found to be 20% and the Z score is -2.51.

On to `OC(CN1CCOC2CCCCC21)Cn1cccn1` (centres undefined), for which the “% Inhibition” value is recorded as -5% and the Z score is 0.7.

For `CC(C)(C)OC(=O)N1CCC2(CC(NCc3ccccc3)c3ccccc3O2)C1` (centres undefined), the “% Inhibition” value is -9% and the Z score was 1.1.

Regarding `COc1cc2c(c(OC)c1OC)CCN(C(=O)c1ncc(C)cc1O)CC2`, the “% Inhibition” value is -3% and the Z score is listed as 0.25.

Turning to `Cc1cc(N2C(=O)C(C)(C)CS2(=O)=O)ccc1S(=O)(=O)N[C@H]1CCS(=O)(=O)C1`, the “% Inhibition” value is listed as -1% and the Z score is recorded as 0.17.

As for `C[C@@H](C(=O)Nc1ccc2c(c1)OCCO2)N1C(=O)c2ccncc2C1=O`, the “% Inhibition” value was -5% and the Z score is 0.69.

For `C[C@@H](CCc1ncnn1-c1ccc2c(c1)CCC2)N1CCN(C)CC1`, the “% Inhibition” value is listed as -4% and the Z score was determined as 0.47.

For `Cc1ccc(N2CC[C@@H](C(=O)NCc3ccccn3)C2=O)cc1Cl`, the “% Inhibition” value was -11% and the Z score amounted to 1.39.

Consider `O=C(NCc1cccc(Cl)c1)c1cccn1-c1cccnc1`, for which the “% Inhibition” value was -7% and the Z score stood at 0.71.

Take `CN(CC(F)(F)F)C(=O)CNc1cccc(F)c1C#N`: the “% Inhibition” value is listed as 3% and the Z score is recorded as -0.45.

For the compound `CC1CN(S(=O)(=O)NCC2CCOC2)CC(C)O1` (centres undefined), the “% Inhibition” value is -3% and the Z score is 0.5.

In the case of `O=C1CN(C(=O)N[C@@H](Cc2ccccc2)C(=O)Nc2ccc(F)c(Cl)c2)c2ccccc2N1`, the “% Inhibition” value worked out at 0% and the Z score is reported as -0.05.

As for `CCc1noc(C)c1C(=O)N1CCC2(CCCCC2)C1`, the “% Inhibition” value is on record as -6% and the Z score is 0.64.

As to `Cc1nc(C(C)(C)NCc2nnc(-c3ccco3)o2)sc1C`, the “% Inhibition” value is given as -8% and the Z score is listed as 0.7.

Take `CCC(CC)[C@@H](C(=O)Nc1ccc2nnc(C(C)C)n2c1)N1CCOCC1`: the “% Inhibition” value is reported as -5% and the Z score worked out at 0.98.

On to `COCCc1nc(Cn2ccccc2=O)n(CCc2cnc[nH]2)n1`, for which the “% Inhibition” value was -8% and the Z score was found to be 1.34.

With `O=C(CN(C[C@H]1CCCO1)C(=O)c1cncc(F)c1)N1CCCC1`, the “% Inhibition” value was -2% and the Z score worked out at 0.31.

Consider `O=C(c1ccc(Br)cc1)[C@@H]1[C@@H]2CCCN2[C@]2(C(=O)Nc3ccc(Cl)cc32)[C@@]12C(=O)Nc1ccccc12`, for which the “% Inhibition” value came to 28% and the Z score is listed as -3.56.

For the compound `CCOc1cc(Br)c(CC(=O)Nc2cccc(COCC3CC3)c2)cc1OCC`, the “% Inhibition” value is given as -6% and the Z score came to 1.01.

`Cc1ccc(NC(=O)c2ccc3[nH]cnc3c2)c(O)n1`: the “% Inhibition” value is 4% and the Z score is -0.47.

Consider `Cc1[nH]c(=O)[nH]c(=O)c1S(=O)(=O)N1CCCCCC1`, for which the “% Inhibition” value is on record as -5% and the Z score came to 1.09.

Turning to `CC(=O)Nc1ccc(C(=O)NCc2nnc(C(=O)Nc3ccc(F)cc3)s2)cc1`, the “% Inhibition” value worked out at 6% and the Z score is -1.05.

As for `COc1ccc(NC(=O)C2(NC(=O)[C@H]3CC(=O)N(C(C)C)C3)CCCC2)cc1OC`, the “% Inhibition” value is recorded as -11% and the Z score stood at 1.26.

Consider `COc1cc(CC(=O)N(C)Cc2nnc(C3CC3)n2C)ccc1Cl`, for which the “% Inhibition” value is -7% and the Z score was determined as 0.96.

For the compound `OCC[C@H]1CCCCCN1Cc1cn2cccnc2n1`, the “% Inhibition” value is -5% and the Z score is recorded as 0.49.

For `CC(C)(CC(=O)N1CC2(CCOCC2)c2ccc(Br)cc21)C(=O)O`, the “% Inhibition” value was 29% and the Z score was -3.25.

Consider `Cc1cc(C)nc(N[C@@H](Cc2ccccc2)C(=O)N2CCOCC2)n1`, for which the “% Inhibition” value is listed as -10% and the Z score amounted to 1.26.

The values are drawn from ChEMBL document CHEMBL4888484, “Replenishing the malaria drug discovery pipeline: Screening and hit evaluation of the MMV Hit Generation Library 1 (HGL1) against asexual blood stage Plasmodium falciparum ,using a nano luciferase reporter read-out” (2022).
